Data on one molecule can be found in PMC6527154, “Novel MASP-2 inhibitors developed via directed evolution of human TFPI1 are potent lectin pathway inhibitors” (The Journal of Biological Chemistry, 2019).

Assay [1] has as its target T1, three-domain catalytic fragment of human MASP-2 (hMASP-2cf) (human, UniProt O00187 298-686).
T1 construct: also called Human MASP-2cf; source: recombinant, produced as described previously (60–62)
The assay is described as follows: enzyme inhibition assay (equilibrium inhibitory constant KI from residual activity); constant enzyme co-incubated with serial dilutions of inhibitor for 2 h at room temperature; 20 mM HEPES, 145 mM NaCl, 5 mM CaCl2, 0.05% Triton X-100, pH 7.5; residual activity on 250 μM Z-Lys-SBzl with DTNB at 410 nm; fit of free enzyme by Eq. 1. The conditions noted are these: both partners purified.

Assay [2] has as its target T2, catalytic fragment of rat MASP-2 (rMASP-2cf) (rat, UniProt Q9JJS8 298-685).
T2 construct: extra Met-Thr dipeptide at the N terminus; Rat MASP-2, catalytic fragment from Gln-298 to Phe-685 according to UniProt entry Q9JJS8; also called Rat MASP-2cf; source: recombinant, produced similarly to hMASP-2cf (61)
The assay is described as above. The following applies: both partners purified.

T2 sequence (Q9JJS8 other isoform, or with tags, fused parts or gaps): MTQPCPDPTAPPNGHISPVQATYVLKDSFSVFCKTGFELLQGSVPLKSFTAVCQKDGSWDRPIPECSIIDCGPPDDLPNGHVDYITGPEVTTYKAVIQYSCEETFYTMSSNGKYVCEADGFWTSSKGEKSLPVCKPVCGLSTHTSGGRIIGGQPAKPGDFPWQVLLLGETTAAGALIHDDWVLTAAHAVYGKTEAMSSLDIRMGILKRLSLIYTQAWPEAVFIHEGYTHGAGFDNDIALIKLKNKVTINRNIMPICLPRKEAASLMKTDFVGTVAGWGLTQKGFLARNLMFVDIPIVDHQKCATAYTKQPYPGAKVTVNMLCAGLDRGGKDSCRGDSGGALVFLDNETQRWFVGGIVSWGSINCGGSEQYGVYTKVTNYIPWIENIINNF
T1 sequence (O00187 298-686): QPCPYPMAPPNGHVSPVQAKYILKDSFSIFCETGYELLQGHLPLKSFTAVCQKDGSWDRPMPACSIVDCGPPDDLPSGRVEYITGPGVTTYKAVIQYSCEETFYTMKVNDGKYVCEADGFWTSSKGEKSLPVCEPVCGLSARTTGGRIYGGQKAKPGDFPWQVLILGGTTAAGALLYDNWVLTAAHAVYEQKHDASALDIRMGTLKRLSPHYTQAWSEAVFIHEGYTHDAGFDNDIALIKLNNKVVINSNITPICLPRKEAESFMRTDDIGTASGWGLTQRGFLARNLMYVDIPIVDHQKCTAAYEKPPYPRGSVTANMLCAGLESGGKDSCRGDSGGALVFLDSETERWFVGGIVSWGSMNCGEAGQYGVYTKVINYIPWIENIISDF

B1: second Kunitz domain of human tissue factor pathway inhibitor 1 (TFPI1 D2) (domain or fragment)
chain: not shown
notes: Second Kunitz domain (D2) of human TFPI1, […]; also called TFPI D2; source: E. coli, purified to homogeneity (S100A4 fusion expression vector)
For orientation: Ki means the dissociation constant of the complex between target and ligand, obtained from inhibition or displacement. For B1, the inhibitory constant (Ki) amounted to 1880 nM in assay [1] and 185 nM in assay [2].
